Measurements from PubChem BioAssay AID445 (National Center for Advancing Translational Sciences (NCATS), 2006).
In all, about 110,000 compounds went through this assay and about 40 (0.04%) were called active. The shares of active, inactive and inconclusive entries below differ from those in the screen. Calls come from the whole dose curve; as a rule, active = well fitted curve in the direction sought with a large enough effect in the signal ratio (not every such curve was filed as active); inconclusive = small, poorly fitted or top-dose-only effect, or a change in a side signal; inactive = flat fitted curve, though single readings scatter; the % refers to the signal ratio. Where the call is inconclusive, the potency comes from a doubtful curve fit.

assay: IkB Signaling; settings: ABC-DLBCL IkBa-CBG/CBR dual luciferase ratio (green luciferase fused to IkBa over red control in OCI-Ly3 lymphoma cells), 4 h; IkBa stabilization activation: at 57.1 µM (top of the series), scaled: untreated 0%, proteasome inhibitor 100% unless noted;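 for IkBa stabilization activation: 0% = basal untreated cells and 100% = reference inhibitor full response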
Method in brief: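 In this assay, an IκBα–CBG68 fusion accumulates when IKK-driven degradation is blocked; native CBR normalizes for cell number. OCI-Ly3 cells were treated 4 h with compound and doxycycline, then green and red light read after Chroma-Glo addition.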
Potency is the fitted concentration of half-maximal effect.

Row | Compound | IkBa stabilization activation | Potency
1 | c1ccc(CC2CCN(c3nc4ccccc4n4nnnc34)CC2)cc1 | inconclusive: 12.7% [signal inhibitor] | –
2 | CC(C)(C)C1CCc2c(sc(NC(=O)c3ccccc3F)c2C(=O)N2CCCCC2)C1 (stereo not drawn) | – | inconclusive: 39.8 µM [signal inhibitor]
3 | COc1ccc(NC2=C(C)C(=O)CC2)cc1 | inconclusive: 19.7% [signal activator] | –
4 | CCOC(=O)c1cccc(NC(=O)CC(c2ccc(F)cc2)N2Cc3ccccc3C2=O)c1 (stereo not drawn) | inconclusive: -0.15% [signal inhibitor] | –
5 | CCCOc1ccc(OC(=O)c2sc3ncn(Cc4cccc(F)c4)c(=O)c3c2C)cc1 | inconclusive: 0.738% [signal inhibitor] | –
6 | CCC(O)OC(O)CC (stereo not drawn) | inactive | –
7 | CCCS(=O)(=O)N1CCCC(C(=O)N2CCOCC2)C1 (stereo not drawn) | inactive | –
8 | CN(C(=O)c1cc2sccc2n1C)C1CCCCC1 | – | inconclusive: 20 µM [signal inhibitor, partial curve]
9 | COc1ccccc1Nc1nc(-c2cccs2)cs1 | inconclusive: 5.14% [signal inhibitor] | –
10 | CCC(CC)C(=O)NCCc1ccc(OC)c(OC)c1 | inactive | –
11 | Cc1nc2cc(-c3cccc(F)c3)nn2c(C)c1CCC(=O)N1CCN(c2ccc(F)cc2)CC1 | – | inconclusive: 10 µM [signal inhibitor]
12 | NCCCCNS(=O)(=O)c1cccc2c(Cl)cccc12 | inactive | –
13 | COc1ccc(C)cc1N(C)C(=O)c1sc2nc3n(c(=O)c2c1C)CCCCC3 | inactive | –
14 | Cc1cccc(-c2noc(CN(C(=O)c3ccc(C)c(C)c3)C(C)C)n2)c1 | inconclusive: -2.88% [signal inhibitor] | –
15 | Cc1csc2nc(-c3cccc(NC(=O)c4cccc(F)c4)c3)cn12 | inconclusive: 1.96% [signal inhibitor] | –
16 | CCOc1ccc(CCNC(=O)C2=C(C)C(=O)OC23CCC(C)CC3)cc1OCC (stereo not drawn) | inconclusive: -0.59% [signal inhibitor] | –
17 | O=C(CN(C(=O)c1cc2c(s1)CCC2)C1CCCC1)NCc1cccs1 | inconclusive: 6.12% [signal inhibitor] | –
18 | Nc1ncnc2c1c(-c1ccc(Oc3ccccc3)cc1)cn2C1CCCC1 | inactive | –
19 | Cc1ccc(C(=O)c2oc3ccccc3c2NC(=O)c2nc(S(C)(=O)=O)ncc2Cl)cc1F | inconclusive: 0.00133% [signal inhibitor] | –
20 | CCOC(=O)Cn1c(=O)oc2cc(S(=O)(=O)NCc3ccc(F)cc3)ccc21 | inconclusive: 9.4% [signal inhibitor] | –
21 | c1cncc(-c2nc(-n3ccnc3)c3ccccc3n2)c1 | inactive: -1.46% [at 11.4 µM, scaled: untreated 0%, proteasome inhibitor 100%] | –
22 | O=C1CC(c2ccccc2)Cc2[nH]c(=O)c(-c3nc(-c4cccc(Cl)c4)cs3)cc21 (stereo not drawn) | – | inconclusive: 10 µM [signal inhibitor, partial curve]
23 | COc1ccc(-c2cc(C(=O)N3CCN(c4ccccc4OC)CC3)c3cc(C(C)C)ccc3n2)cc1 | inconclusive: -0.56% [signal inhibitor] | –
24 | Cc1ccc(Cl)cc1N1CCN(C(c2ccc(F)cc2)c2nnc(-c3ccccc3)o2)CC1 (stereo not drawn) | – | inconclusive: 15.8 µM [signal inhibitor]

Row | Compound | IkBa stabilization activation | Potency
25 | COC(=O)c1sccc1S(=O)(=O)N1CCN(c2cccc(C)c2C)CC1 | inconclusive: -1.47% [signal inhibitor] | –
26 | N=c1c(C(=O)NCC2CCCO2)cc2c(=O)n3ccccc3nc2n1Cc1cccnc1 (stereo not drawn) | inactive | –
27 | Cc1cc(C(=O)OCCO)c(C#N)c(N)n1 | inactive | –
28 | COCCNC(=O)C(c1ccc(C)o1)N(C(=O)c1snc(C(N)=O)c1N)c1ccc(C)cc1 (stereo not drawn) | inconclusive: -1.69% [signal activator] | –
29 | CCC1=C/C(=C/N(C)c2ccccc2)C(=O)S1 | inactive | –
30 | COc1ccc2nc(NS(=O)(=O)c3ccc(C)cc3)c(Nc3cc(Cl)ccc3OC)nc2c1 | inconclusive: 8.9% [signal inhibitor] | –
31 | CCOc1ccc(-c2cc(CCCC(=O)Nc3cccc(OC)c3)no2)cc1 | – | active: 3.16 µM
32 | O=C1CCCC2=C1C1(CCCC1)N=C(Nc1nc3ccccc3o1)N2 | – | inconclusive: 15.8 µM [signal inhibitor, partial curve]
33 | CCCCN(c1ccccc1)c1ncnc2c1cnn2-c1ccc(Cl)cc1 | inactive | –
34 | COc1ccc(OC)c(CCNC(=O)CCn2c(=O)c3cccn3c3cccnc32)c1 | inactive | –
35 | Cc1ccccc1NC(=O)Cn1c(=O)n(Cc2ccc3c(c2)OCO3)c(=O)c2oc3ccccc3c21 | inactive | –
36 | CCN1C(=S)SC(=O)C1=C1C=C(C)OC(C)=C1 | inactive | –
37 | Cc1ccc(-c2cn3cccc(C)c3n2)cc1NS(=O)(=O)c1ccccc1 | inconclusive: 0.836% [signal inhibitor] | –
38 | Cc1nn(-c2ccccc2)c2sc(C(=O)NC3CCCCC3)cc12 | inactive | –
39 | CCOC(=O)Cc1nnc(NC(=O)CSc2nnc3c4ccccc4n(C)c3n2)s1 | inactive | –
40 | Cn1nc(-c2ccc(Cl)cc2)c2cc(C(=O)NCC3CCCO3)sc21 (stereo not drawn) | inconclusive: -0.112% [signal inhibitor] | –
41 | O=C(c1ccccc1)N1CCc2cc(CNS(=O)(=O)c3ccccc3Cl)ccc21 | inactive | –
42 | c1nc(N2CCNCC2)c2cc(-c3ccc4c(c3)OCO4)ccc2n1 | inactive: -3.65% [at 11.4 µM, scaled: untreated 0%, proteasome inhibitor 100%] | –
43 | COc1cccc(-c2nnc(NC(=O)c3ccc(S(=O)(=O)N4CCOCC4)cc3)o2)c1 | inconclusive: 7.47% [signal inhibitor] | –
44 | Cc1ccc(-c2nn3c(C)nnc3c3ccccc23)cc1S(=O)(=O)NCCO | – | inconclusive: 12.6 µM [signal activator]
45 | Cc1cccc(N(CC(=O)NC(C)c2ccccc2)S(=O)(=O)c2ccccc2)c1C (stereo not drawn) | inconclusive: 5.22% [signal inhibitor] | –
46 | Cc1ccc(-n2sc3ccccc3c2=O)cc1S(=O)(=O)N1CCCCC1 | inactive | –
47 | Cc1ccc(CNC(=O)c2nc(SCc3cccc(C)c3)ncc2Cl)cc1 | inactive | –
48 | COc1ccc(S(=O)(=O)NCCSc2ccc(C)cc2)cc1OC | inconclusive: -1.28% [signal inhibitor] | –
